ChEMBL document CHEMBL1201862, “PubChem BioAssay data set” (2004)
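Results reflect a 48-hour exposure of cells in 96-well plates to compound at five concentrations. The concentration for 50% growth inhibition is given as GI50.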 Active and inactive are the calls of the source. No stated cut-off is given here; in the data, active = GI50 up to about 1.1 µM and inactive = higher.

Tested on: NCI-H322M
Assay: inhibition of tumour cell growth, NCI panel, 48 h

**Q.** With `COC(=O)C(CNC(=O)/C=C/c1ccc(OC(C)=O)c(OC(C)=O)c1)NC(=O)/C=C/c1ccc(OC(C)=O)c(OC(C)=O)c1` (stereo unspecified) as the compound, how does the GI50 read?
**A.** inactive: > 100 µM

**Q.** How did the GI50 turn out when `CC1(C)CCC2=C(O1)/C(=N\Nc1ccc(S(N)(=O)=O)cc1)c1ccccc1C2=O` was run?
**A.** inactive: 13.7 µM

**Q.** How did the GI50 turn out when `N#CC(C#N)C(c1ccccc1)c1ccccc1` was run?
**A.** inactive: > 100 µM

**Q.** With `COc1cc(CCCOC(=O)/C=C/c2ccc(O)c(O)c2)cc(O)c1O` as the compound, how does the GI50 read?
**A.** inactive: > 100 µM

**Q.** Which GI50 does the source give for `COC(=O)/C=C\S/C(=C(/c1ccccc1)n1ccc(C(=O)OC)n1)c1ccccc1` here?
**A.** inactive: 36.2 µM

**Q.** With `OC(c1ccccc1)(c1ccccc1)c1cccnc1` as the compound, how does the GI50 read?
**A.** inactive: > 100 µM

**Q.** How did the GI50 turn out when `COC(=O)/C=C/[C@H]1[C@H](C)N1S(=O)(=O)c1ccc(C)cc1` (stereo partly specified) was run?
**A.** inactive: > 100 µM

**Q.** For `COc1ccccc1CNC1=Nc2ccncc2S(=O)(=O)N1c1ccccc1`, which GI50 is on record?
**A.** inactive: > 100 µM

**Q.** `COc1ccc(/N=N/C(=O)NC(CC(C)C)C(=O)NCC(=O)O)cc1` (stereo unspecified) was tested. Which GI50 did it give?
**A.** inactive: > 45.8 µM

**Q.** How did the GI50 turn out when `C[Si](C)(C)/C=C\CCO` was run?
**A.** inactive: > 100 µM

**Q.** Which GI50 does the source give for `CC1=NN(c2nc(N)nc(CF)n2)C(C)(C)C1` here?
**A.** inactive: > 100 µM

**Q.** For `COc1ccc(CC2c3cc(OC)c(OC)c(OC)c3CC[N+]2(C)C)cc1Oc1ccc(CC2c3cc4c(c(OC)c3CCN2C)OCO4)cc1` (stereo unspecified), which GI50 is on record?
**A.** inactive: > 100 µM

**Q.** `CCc1[nH]c(=O)nc(N)c1-c1ccc(N2CCCCC2)c([N+](=O)[O-])c1` was tested. Which GI50 did it give?
**A.** inactive: > 100 µM

**Q.** With `O=c1c2ccccc2nc(N/N=C/c2ccccc2O)n1-c1ccccc1` as the compound, how does the GI50 read?
**A.** inactive: 6.05 µM

**Q.** How did the GI50 turn out when `O=C(O)CCC(NC(=O)c1ccc(Nc2nc3cc(C(F)(F)F)ccc3nc2-c2ccccc2)cc1)C(=O)O` (stereo unspecified) was run?
**A.** inactive: > 94.2 µM

**Q.** Which GI50 does the source give for `COc1nc2c(c(=O)[nH]1)N=C(c1ccccc1)CC(c1ccccc1)N2` (stereo unspecified) here?
**A.** inactive: 83.2 µM

**Q.** How did the GI50 turn out when `Cc1cc(Br)c(N2C3=C(CC4=C2CCCC4=O)C(=O)CCC3)c(Br)c1` was run?
**A.** inactive: > 100 µM

**Q.** `COC(=O)n1c(=O)nc2c3c(ncn21)Oc1c(c(-c2ccccc2)nn1-c1ccccc1)C3c1ccc(Cl)cc1` (stereo unspecified) was tested. Which GI50 did it give?
**A.** inactive: 1.47 µM

**Q.** With `Nc1cc2ncnc(Nc3cccc(Br)c3)c2cn1` as the compound, how does the GI50 read?
**A.** inactive: 4.48 µM

**Q.** With `O=C(CCCN1CCC(Nc2ccccc2)(c2nnnn2C2CCCCC2)CC1)c1ccc(F)cc1` as the compound, how does the GI50 read?
**A.** inactive: 1.93 µM

**Q.** How did the GI50 turn out when `Cc1cccc(-c2nnc3s/c(=C\c4ccc(N(C)C)cc4)c(=O)n23)c1` was run?
**A.** inactive: > 100 µM

**Q.** Which GI50 does the source give for `O=C(O)C(=O)/C=C\c1ccc(Cl)cc1` here?
**A.** inactive: > 100 µM

**Q.** With `O=C(Nc1nnc(-c2ccccc2)o1)C(SC(=S)N1CCCCC1)c1ccccc1` (stereo unspecified) as the compound, how does the GI50 read?
**A.** inactive: 13.8 µM

**Q.** With `CN(c1ccc(Cl)cc1)S(=O)(=O)c1ccc([N+](=O)[O-])cc1` as the compound, how does the GI50 read?
**A.** inactive: > 100 µM

**Q.** For `CCCCCCCCCC1CC(=O)OC2=C1C(=O)CCC2` (stereo unspecified), which GI50 is on record?
**A.** inactive: > 100 µM

**Q.** For `CSc1nc(NC2OCC(O)C(O)C2O)c(N)c(=O)n1C` (stereo unspecified), which GI50 is on record?
**A.** inactive: > 100 µM

**Q.** With `FC(F)(F)c1ccc2nc(NCc3ccccc3)c(-c3ccccc3)nc2c1` as the compound, how does the GI50 read?
**A.** inactive: 51.4 µM

**Q.** `C#CCn1c(=O)c2cccnc2n(CC#C)c1=O` was tested. Which GI50 did it give?
**A.** inactive: > 100 µM

**Q.** For `O=[N+]([O-])c1ccc(Cl)c(C2CC(c3cccc4ccccc34)=Nc3ccccc3S2)c1` (stereo unspecified), which GI50 is on record?
**A.** inactive: 50.4 µM

**Q.** `COC(=O)CCC(NC(=O)OC(C)(C)C)C(=O)NC(Cc1ccc(NC(=O)CCCC(C)=O)cc1)C(=O)NC(CCC(=O)OC)C(=O)OC` (stereo unspecified) was tested. Which GI50 did it give?
**A.** inactive: > 100 µM

**Q.** For `COc1c(N2CCCCC2)c2c(=O)c3ccccc3oc2c2c3ccccc3n(C)c12`, which GI50 is on record?
**A.** inactive: > 100 µM

**Q.** Which GI50 does the source give for `COc1ccc(C(c2c(O)c3ccccc3n(C)c2=O)c2c(O)c3ccccc3n(C)c2=O)cc1` here?
**A.** inactive: 86.5 µM

**Q.** With `NCC(=O)Nc1ccc(S(=O)(=O)O)c2cc(S(=O)(=O)O)cc(S(=O)(=O)O)c12` as the compound, how does the GI50 read?
**A.** inactive: > 100 µM

**Q.** `Cc1ccc(/N=N/c2c(O)ccc3cc(S(=O)(=O)O)cc(S(=O)(=O)O)c23)cc1` was tested. Which GI50 did it give?
**A.** inactive: > 100 µM

**Q.** How did the GI50 turn out when `CC(C)C(=O)CP(=O)(O)O` was run?
**A.** inactive: > 100 µM

**Q.** `CCCCCCCCCCCCCCCCOP(=O)(O)Oc1ccc(/C=C\c2ccc(OP(=O)(O)OCCCCCCCCCCCCCCCC)cc2)cc1` was tested. Which GI50 did it give?
**A.** inactive: 67.6 µM

**Q.** Which GI50 does the source give for `O=C1C(Cl)=C(Nc2ccc(S(=O)(=O)O)cc2)C(=O)c2ccccc21` here?
**A.** inactive: 33.7 µM

**Q.** For `CCCCCCCCCCCCC(Br)C(=O)SCCNC(=O)CCNC(=O)[C@@H](O)C(C)(C)COP(=O)(O)OP(=O)(O)OCC1OC(n2cnc3c(N)ncnc32)C(O)C1OP(=O)(O)O` (stereo partly specified), which GI50 is on record?
**A.** inactive: > 56.5 µM

**Q.** `CC12CO[C@@](C)(CC(S(=O)(=O)c3ccccc3)C1)O2` (stereo partly specified) was tested. Which GI50 did it give?
**A.** inactive: > 100 µM

**Q.** `COC(=O)CC1CCN(C#N)CC1CC[N+](=O)[O-]` (stereo unspecified) was tested. Which GI50 did it give?
**A.** inactive: > 100 µM

**Q.** How did the GI50 turn out when `COc1cc2c(cc1OCCCCOc1cc3c(cc1OC)C(=O)N1CCC[C@H]1C(=O)N3)N=C[C@@H]1CCCN1C2=O` was run?
**A.** inactive: 16 µM

**Q.** `COc1ccc(-c2cc(O)c3cc(C)cnc3n2)cc1` was tested. Which GI50 did it give?
**A.** inactive: > 100 µM

**Q.** For `Oc1cc(-c2cccc(C(F)(F)F)c2)nc2cc3c(cc12)OCO3`, which GI50 is on record?
**A.** inactive: 2.24 µM

**Q.** How did the GI50 turn out when `c1ccc2nc(-c3ccc4c(c3)OCO4)ccc2c1` was run?
**A.** inactive: 55.8 µM

**Q.** With `COc1ccc(-c2nnc3n(C)c4ccccc4n3c2=O)cc1` as the compound, how does the GI50 read?
**A.** inactive: > 100 µM

**Q.** How did the GI50 turn out when `CCC[C@H]1C(=O)N=C(N)N1C(=O)OCc1ccccc1` was run?
**A.** inactive: > 100 µM
